Out of some 150,000 compounds screened, about 6,500 (4.3%) were called active. This list was built around the results that the source calls inconclusive (neither active nor inactive); the mix of calls is not that of the screen. Calls come from the whole dose curve; as a rule, active = well fitted inhibition curve with a large enough effect (not every such curve was filed as active); inconclusive = small, poorly fitted or top-dose-only effect, or another doubt; inactive = no such curve, though single readings can be large or run the other way. No potency is given beside an inconclusive call; the fits are too rough.
Each compound was assayed against 15-hydroxyprostaglandin dehydrogenase [NAD(+)] (Homo sapiens) (UniProt P15428) (assay: qHTS Assay for Inhibitors of HPGD (15-Hydroxyprostaglandin Dehydrogenase)). Details: purified HPGD, NADH fluorescence kinetic, PGE2 substrate; activity change, negative = inhibition: active compounds read low.
Chain of UniProt P15428 (P15428 whole entry, looked up): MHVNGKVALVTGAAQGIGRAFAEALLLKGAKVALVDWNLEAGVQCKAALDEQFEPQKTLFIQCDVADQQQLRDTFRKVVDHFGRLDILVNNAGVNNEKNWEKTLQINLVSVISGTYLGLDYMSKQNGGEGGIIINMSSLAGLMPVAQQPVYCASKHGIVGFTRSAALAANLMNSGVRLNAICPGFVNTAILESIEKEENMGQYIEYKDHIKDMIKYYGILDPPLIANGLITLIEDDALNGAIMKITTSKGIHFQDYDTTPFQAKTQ
Method in brief: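 NADH formation kinetics: reaction with 30 uM PGE2 and 1 mM NAD+ (final), 20 nM enzyme, Tris-HCl pH 8 with Tween 20, after 15 min compound preincubation at room temperature. Fluorescence change, last versus first of five reads.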
For `CCOC(=O)c1c(NC(=O)c2cc(-c3ccc(O)cc3)on2)sc(C(C)=O)c1C`, the Potency was active: 17.8 µM. In the case of `Cc1ccc2nc(-c3ccc(SCC(=O)Nc4nnc(C)s4)nc3)[nH]c2c1`, the Potency is reported as inconclusive [inhibitor, partial curve]. With `Cc1[nH]n(-c2ccccc2)c(=O)c1C(c1ccccc1C(=O)O)c1c(C)[nH]n(-c2ccccc2)c1=O` the activity change, negative = inhibition was inactive: -1.75%. With `Cc1nc(NCCO)c2nc(-c3ccccc3)n(CCN(C)C)c2n1` the Potency was inconclusive [inhibitor, partial curve]. For `CCN(CC)C(=O)CSc1nc(-c2ccco2)cc(C(F)(F)F)c1C#N`, the Potency was inconclusive [inhibitor, partial curve]. In the case of `Clc1ccc2c(N3CCCC3)ccnc2c1`, the activity change, negative = inhibition is reported as inactive: -16.7%. In the case of `O=[N+]([O-])c1ccc(Cl)c(/C=N/n2c(C3CCCCC3)n[nH]c2=S)c1`, the Potency is reported as active: 0.631 µM. `COc1ccc(CCCn2ncc3c2nc(N)n2nc(-c4ccco4)nc32)cc1` was tested, and the Potency was inconclusive [inhibitor, single point]. With `CC(=O)N1CCN(CC(=O)Nc2ccccc2Sc2ccccc2)CC1` the activity change, negative = inhibition was inactive: -0.325%. For `O=C(c1ccco1)N1CCN(c2nc(C(F)(F)F)nc3c2nnn3Cc2ccccc2)CC1`, the Potency was inconclusive [inhibitor, partial curve]. `O=C(/C(Br)=C/Nc1cc(Cl)ccc1Cl)C(F)(F)F` was tested, and the Potency was inconclusive [inhibitor, partial curve]. In the case of `CCOc1ccc2nc(SCC)[nH]c2c1`, the Potency is reported as inconclusive [inhibitor, partial curve]. `Cc1[nH]c(=S)[nH]c(=O)c1Cc1ccccc1` was tested, and the activity change, negative = inhibition was inactive: -12.4%. With `COC(=O)c1ccc(CSc2ccc3nnc(-c4cccc(F)c4)n3n2)o1` the Potency was inconclusive [inhibitor, partial curve]. In the case of `COc1ccccc1-n1c(=O)[nH]c2c(C(N)=O)nc(CC(C)C)nc21`, the Potency is reported as inconclusive [inhibitor, full curve]. For `CCn1ncc(Br)c1C(=O)Nc1ccc(F)c([N+](=O)[O-])c1`, the activity change, negative = inhibition was inactive: -15.1%. `S=c1[nH]nc(-c2ccco2)n1/N=C/C=C/c1ccco1` was tested, and the Potency was active: 14.1 µM. `CCNC1=C(Cl)C(=O)c2ccccc2C1=O` was tested, and the activity change, negative = inhibition was inactive: -20.5%. For `COC(=O)c1nc2cc3c(cc2c(C)c1C(=O)OC)OCO3`, the Potency was inconclusive [inhibitor, partial curve]. For `O=C(Nc1ccc(Nc2ccccc2)cc1)C(Cl)(Cl)Cl`, the Potency was active: 31.6 µM. With `N#Cc1cc(-c2ccccc2)c[nH]c1=O` the Potency was inconclusive [inhibitor, partial curve]. In the case of `CCCc1nc2oc3c(=O)[nH]cnc3c2c2c1CCCC2`, the Potency is reported as inconclusive [inhibitor, partial curve]. `O=C(NC1CCCC1)C1CCN(c2nccs2)CC1` was tested, and the Potency was active: 14.1 µM. With `COc1ccc(Oc2ncc3nc(-c4ccccc4)c(=O)n(Cc4cccs4)c3n2)cc1` the Potency was inconclusive [inhibitor, partial curve]. With `Cc1sc(NC(=O)C2CCCC2)c(C#N)c1C` the Potency was active: 10 µM. For `CCN1CCCC1CNC(=O)c1cc2c(=O)n(C)c3ccccc3c2n1C` (stereo not drawn), the Potency was inconclusive [inhibitor, single point]. `CC(=O)c1ccc(Sc2ccc(C(C)=O)cc2)cc1` was tested, and the Potency was active: 17.8 µM. With `Cn1c(C(=O)O)cc2cc(F)ccc21` the Potency was inconclusive [inhibitor, partial curve]. With `CCOC(=O)C1=C(C)NC(=O)NC1c1ccc2c(c1)OCO2` (stereo not drawn) the activity change, negative = inhibition was inactive: -18.4%. For `Cn1c(/C=N/NC(=O)c2ccccc2Br)nc2ccccc21`, the Potency was inconclusive [inhibitor, partial curve]. In the case of `COc1cccc(C(=O)CN2CCN(S(=O)(=O)c3ccc(Br)cc3)CC2)c1`, the activity change, negative = inhibition is reported as inactive: -7.48%. With `O=C1C=C(c2ccccc2)C(=O)N1Nc1ccccc1` the Potency was inconclusive [inhibitor, single point]. `c1ccc(-n2nnnc2SCCCSc2nc3ccccc3s2)cc1` was tested, and the Potency was active: 11.2 µM. With `CCOC(=O)CSc1ccc2nnc(-c3ccncc3)n2n1` the Potency was inconclusive [inhibitor, single point]. `O=C(CNCC1CCCO1)Nc1ccccc1N1CCOCC1` (stereo not drawn) was tested, and the activity change, negative = inhibition was inactive: -4.2%. In the case of `COCCn1nnnc1CN(Cc1ccco1)Cc1cc2cc3c(cc2[nH]c1=O)OCO3`, the Potency is reported as inconclusive [inhibitor, partial curve]. For `CCC(Sc1nc2ccccc2c2nc3ccccc3n12)C(=O)NCc1ccco1` (stereo not drawn), the activity change, negative = inhibition was inactive: -13.2%. In the case of `O=C(c1ccccc1Cl)N1CCc2ccccc2C1`, the Potency is reported as active: 4.47 µM. With `COc1ccc(OCC(O)Cn2c(Br)nc3c2c(=O)[nH]c(=O)n3C)cc1` (stereo not drawn) the Potency was inconclusive [inhibitor, partial curve]. For `C(=Nc1cnc2ccccc2c1)c1ccc2ccccc2n1`, the Potency was inconclusive [inhibitor, partial curve]. `COc1cc2c(C#N)c(N3CCCCC3)nc(N)c2c(N)n1` was tested, and the Potency was inconclusive [inhibitor, partial curve]. With `Cc1nn(-c2ccccc2)c(C)c1CCC(=O)O` the activity change, negative = inhibition was inactive: -4.63%. `COC(=O)c1c(NC(=O)CSc2nnnn2-c2ccccc2)sc2c1CCCC2` was tested, and the activity change, negative = inhibition was inactive: -18.6%. With `COc1ccc(CCNC(=O)Cn2c(=O)cnc3ccccc32)cc1` the Potency was inconclusive [inhibitor, partial curve]. In the case of `O=C(O)c1ccc(SSc2ccc(C(=O)O)cn2)nc1`, the Potency is reported as active: 3.98 µM. In the case of `O=C(CSc1nnc(-c2ccccc2)o1)c1nnc(-c2ccccc2)o1`, the Potency is reported as inconclusive [inhibitor, partial curve]. For `O=C1Nc2ccccc2C12Nc1ccccc1S2` (stereo not drawn), the Potency was inconclusive [inhibitor, partial curve]. For `COc1ccc(/C=N\NC(=O)c2nn(C)cc2Cl)cc1CN1CCOCC1`, the Potency was inconclusive [inhibitor, partial curve, poor fit].

From PubChem BioAssay AID894 (National Center for Advancing Translational Sciences (NCATS), 2007)
% is set by controls: 0 for no effect and ±100 for the full control effect; potency is the fitted concentration of half-maximal effect; tags give direction and shape of the fitted curve.
